Results published in PubChem BioAssay AID1478 (National Center for Advancing Translational Sciences (NCATS), 2009).
Screen size: about 200,000 compounds; about 860 (0.43%) were called active. This list was built around the results that the source calls inconclusive (neither active nor inactive); the mix of calls is not that of the screen. Calls follow the shape of the dose curve; as a rule, active = well fitted inhibition curve with a large enough effect; inconclusive = small, poorly fitted or top-dose-only effect; inactive = flat fitted curve, though single readings scatter. A potency beside an inconclusive call is a rough fit, not a confirmed value.

Each compound was assayed against Cruzipain (Trypanosoma cruzi) (UniProt P25779) (assay: qHTS Assay for Promiscuous and Specific Inhibitors of Cruzain (with detergent)). Details: purified cruzain, Z-FR-AMC fluorescence, 0.01% Triton.
Method: Cruzain (3.4.22.51) is a cysteine protease from the tropical parasite Trypanosoma cruzi. Dual qHTS experiment was performed against the NCGC compound collection in order to 1) identify novel inhibitors of the enzyme and 2) profile the compound collection for promiscuous inhibitors operating via colloidal aggregation (by performing detergent-free and detergent-containing comparison screens). Cruzain was assayed by the use of fluorogenic coumarin-based substrate Z-FR-AMC: proteolytic cleavage releases AMC, whose fluorescence is measured at 360 nm excitation and 450 nm emission. Purified cruzain was supplied by the labs of Prof. James McKerrow and Brian Shoichet, UC San Francisco.
This assay had 0.01% Triton X-100 concentration. See also releated assay "qHTS Assay for Promiscuous and Specific Inhibitors of Cruzain (without detergent)" with 0.00005% Triton X-100.
See following references for additional details: […]
Three uL of enzyme or buffer were dispensed to 1536-well Greiner black solid bottom plates. […] The plates were immediately transferred to and read 4 times every 30 seconds for 2 min on ViewLux High-throughput CCD imager (Perkin-Elmer) using 360 nm excitation and 450 nm emission fluorescence protocol. The fluorescence intensity difference between the third and the first time points (time lapse of 60 seconds) was used to compute reaction progress.
Also: nearly all actives have a fitted effect of over 40% in size.
Potency is read from the fitted curve at half-maximal effect; tags tell the direction and shape of the fitted curve.

Chain of UniProt P25779 (P25779 whole entry, looked up): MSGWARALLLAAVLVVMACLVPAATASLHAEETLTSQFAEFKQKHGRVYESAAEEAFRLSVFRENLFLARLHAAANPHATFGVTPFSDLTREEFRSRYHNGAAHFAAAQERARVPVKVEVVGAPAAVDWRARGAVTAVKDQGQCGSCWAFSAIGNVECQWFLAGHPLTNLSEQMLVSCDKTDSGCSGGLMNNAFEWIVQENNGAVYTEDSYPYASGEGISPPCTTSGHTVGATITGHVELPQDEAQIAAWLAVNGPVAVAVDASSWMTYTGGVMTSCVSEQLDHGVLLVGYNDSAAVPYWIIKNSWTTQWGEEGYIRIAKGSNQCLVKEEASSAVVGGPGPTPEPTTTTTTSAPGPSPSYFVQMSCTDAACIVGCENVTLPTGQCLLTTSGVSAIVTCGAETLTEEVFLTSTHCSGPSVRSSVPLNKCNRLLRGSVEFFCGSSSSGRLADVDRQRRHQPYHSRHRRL

SMILES	Potency
O=C1NN(c2ccc(F)c(Cl)c2)C(=O)/C1=C\c1cccc(OC(=O)c2cccs2)c1	inconclusive: 31.6 µM [inhibitor, single point]
